In patent US20220402862A1 (Intellia Therapeutics, Inc., priority 2019, published 2022):
The name of at least one read-out is uncertain.

Each compound was assayed on mouse TTR gene (assay: In vivo editing in mouse liver, sgRNA targeting TTR (G282 or G502), % indel by NGS). Conditions: guide G282 (mouse TTR gene), LNP 50/9/38/3 amine lipid/DSPC/cholesterol/PEG-2k-DMG, N/P about 6, NGS, experiments 1-10, 16-20.
Design: species or system CD-1 female mice
Summary of the method: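 Female CD-1 mice, 6–10 weeks, given a single i.v. tail-vein dose of LNPs carrying Cas9 mRNA plus TTR sgRNA (G282 or G502), at several dose levels. Liver collected at 6 or 7 days; percent indels = reads with insertions or deletions over total reads, by amplicon NGS.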

Going from `CCCCCCCCCC(C)OC(=O)CCCCCCCC(=O)OCC(COC(=O)CCC(OCCCCCCCC)OCCCCCCCC)COC(=O)OCCCN(CC)CC` (stereo not shown) [Compound 94, 1-(344,4-bis(octyloxy)butanoyl)oxy)-2-((((3-(diethylamino)propoxy)carbonyl)oxy)methyl)propyl) 9-(undecan-2-yl) nonanedioate] to `CCCCCCCCCC(CC)OC(=O)CCCCCCCC(=O)OCC(COC(=O)CCC(OCCCCCCCC)OCCCCCCCC)COC(=O)OCCCN(CC)CC` (stereo not shown) [Compound 95, 1-(3-((4,4-bis(octyloxy)butanoyl)oxy)-2-((((3-(diethylamino)propoxy)carbonyl)oxy)methyl)propyl) 9-(dodecan-3-yl) nonanedioate], the “Editing Mean % Indel” value falls from 39.4% to 30.3%.

Compared with `CCCCC/C=C\C/C=C\CCCCCCCC(=O)OCC(C)(COC(=O)CCC(OCCCCCCCC)OCCCCCCCC)COC(=O)OCCCN(CC)CC` (stereo not shown) [Compound 96, 3-((4,4-bis(octyloxy)butanoyl)oxy)-2-((((3-(diethylamino)propoxy)carbonyl)oxy)methyl)-2-methylpropyl (9Z,12Z)-octadeca-9,12-dienoate], `CCCCC/C=C\C/C=C\CCCCCCCC(=O)OCC(COCCCN(CC)CC)COC(=O)CCC(OCCCCCCCC)OCCCCCCCC` (stereo not shown) [Compound 99, 3-((4,4-bis(octyloxy)butanoyl)oxy)-2-((3-(diethylamino)propoxy)methyl)propyl (9Z,12Z)-octadeca-9,12-dienoate] is higher in “Editing Mean % Indel” value: 15.3% for the first, 26.38% for the second.

For `CCCCC/C=C\C/C=C\CCCCCCCC(=O)OCC(COCCN(CC)CC)COC(=O)CCC(OCCCCCCCC)OCCCCCCCC` (stereo not shown) [Compound 98, 3-((4,4-bis(octyloxy)butanoyl)oxy)-2-((2-(diethylamino)ethoxy)methyl)propyl (9Z,12Z)-octadeca-9,12-dienoate], the “Editing Mean % Indel” value was 10.56%.

The compounds below were run on mouse B2M gene (assay: In vivo editing in mouse liver, sgRNA targeting B2M (G650), % indel by NGS). Conditions: guide G650 (mouse B2M gene), LNP 50/9/38/3, N/P about 6, NGS, experiments 11-15.
Design: species or system CD-1 female mice
Experimental: CD-1 female mice ranging from 6-10 weeks of age were used in each study. Animals were weighed and grouped according to body weight for preparing dosing solutions based on group average weight. LNPs were dosed via the lateral tail vein in a volume of 0.2 mL per animal (approximately 10 mL per kilogram body weight). The animals were periodically observed for adverse effects for at least 24 hours post dose. For studies measuring in vivo editing in liver, CD-1 female mice were dosed at 0.1 mg/kg unless otherwise noted. Animals were euthanized at 6 or 7 days by ex sanguination via cardiac puncture under isoflurane anesthesia. Liver tissue was collected from each animal for DNA extraction and analysis. Blood was collected into serum separator tubes or into tubes containing buffered sodium citrate for plasma as described herein. Cohorts of mice were measured for editing by Next-Generation Sequencing (NGS).
In brief, to quantitatively determine the efficiency of editing at the target location in the genome, genomic DNA was isolated and deep sequencing was utilized to identify the presence of insertions and deletions introduced by gene editing.
PCR primers were designed around the target site (e.g., within B2M), and the genomic area of interest was amplified. Additional PCR was performed according to the manufacturer's protocols (Illumina) to add the necessary chemistry for sequencing. The amplicons were sequenced on an Illumina MiSeq instrument. The reads were aligned to the mouse or rat reference genome (e.g., GRCm38) after eliminating those having low quality scores. The resulting files containing the reads were mapped to the reference genome (BAM files), where reads that overlapped the target region of interest were selected and the number of wild type reads versus the number of reads which contain an insertion, substitution, or deletion was calculated.
The editing percentage (e.g., the “indel efficiency” or “percent indels”) was defined as the total number of sequence reads with insertions or deletions over the total number of sequence reads, including wild type.
We assessed in vivo editing efficiency for materials delivered with formulations including various amine lipid compounds. Editing was measured using either G282 (SEQ ID No: 1) which targets the mouse TTR gene or G650 (SEQ ID No. 2) which targets the mouse B2M gene. Lipids described above were assessed for efficacy through in vivo editing experiments. LNPs were formulated at a 1:1 or 1:1.3 w/w ratio of sgRNA to Cas9 mRNA, and at an N/P ratio of about 6. Molar concentrations of lipids in the lipid component of the LNPs are used at mol % amine lipid/DSPC/cholesterol/PEG-2k-DMG of 50/9/38/3. The final LNPs were characterized to determine the encapsulation efficiency, polydispersity index, and average particle size according to the analytical methods provided above. Analysis of average particle size, polydispersity (PDI), total RNA content and encapsulation efficiency of RNA are shown in Table 2.
Alternatively, Cas9 mRNA of Example 120 was formulated as LNPs with an sgRNA targeting B2M (G650, SEQ ID NO: 2) These LNPs were formulated at a w/w ratio of a sgRNA and Cas9 mRNA as indicated in Table 4. The LNPs were formulated using the cross flow procedure with lipid molar compositions of mol % amine lipid/DSPC/cholesterol/PEG-2k-DMG of 50/9/38/3 and an N/P ratio of 6.0. […]
CD-1 female mice were dosed i.v. at 0.1, 0.3, or 1 mg/kg and assessed for editing in liver, spleen, and bone marrow.

Compared with `CCCCCCCCOC(CCC(=O)OCC(COC(=O)CCCCCCCC(=O)OCCCCCC)COC(=O)OCCCN(CC)CC)OCCCCCCCC` (stereo not shown) [Compound 57, 1-(3-((4,4-bis(octyloxy)butanoyl)oxy)-2-((((3-(diethylamino)propoxy)carbonyl)oxy)methyl)propyl) 9-hexyl nonanedioate], `CCCCCCCCOC(=O)CCCCCCCC(=O)OCC(COC(=O)CCC(OCCCCCCCC)OCCCCCCCC)COC(=O)OCCCN(CC)CC` (stereo not shown) [Compound 58, 1-(3-((4,4-bis(octyloxy)butanoyl)oxy)-2-((((3-(diethylamino)propoxy)carbonyl)oxy)methyl)propyl) 9-octyl nonanedioate] is higher in “Editing Mean % Indel” value: 10.0% for the first, 14.9% for the second.

First: CCCCCCCCOC(CCC(=O)OCC(COC(=O)CCCCCCCCCCC(=O)OCCCCC)COC(=O)OCCCN(CC)CC)OCCCCCCCC (stereo not shown) [Compound 60, 1-(3-((4,4-bis(octyloxy)butanoyl)oxy)-2-((((3-(diethylamino)propoxy)carbonyl)oxy)methyl)propyl) 12-pentyl dodecanedioate]
Second: CCCCCCCCOC(CCC(=O)OCC(COC(=O)CCCCCCCCCCC(=O)OCCCCCCC)COC(=O)OCCCN(CC)CC)OCCCCCCCC (stereo not shown) [Compound 61, 1-(3-((4,4-bis(octyloxy)butanoyl)oxy)-2-((((3-(diethylamino)propoxy)carbonyl)oxy)methyl)propyl) 12-heptyl dodecanedioate]
The “Editing Mean % Indel” value of the first is higher: 23.7% for the first, 20.2% for the second.

First: CCCCC/C=C\C/C=C\CCCCCCCC(=O)OCC(COC(=O)CCCCC(OCCCCCCCC)OCCCCCCCC)COC(=O)OCCCN(CC)CC (stereo not shown) [Compound 62, 3-((6,6-bis(octyloxy)hexanoyl)oxy)-2-((((3-(diethylamino)propoxy)carbonyl)oxy)methyl)propyl (9Z,12Z)-octadeca-9,12-dienoate]
Second: CCCCC/C=C\C/C=C\CCCCCCCC(=O)OCC(COC(=O)CCC(OCCCCCCCC)OCCCCCCCC)OC(=O)OCCCN(CC)CC (stereo not shown) [Compound 97, 3-((4,4-bis(octyloxy)butanoyl)oxy)-2-(((3-(diethylamino)propoxy)carbonyl)oxy)propyl (9Z,12Z)-octadeca-9,12-dienoate]
The “Editing Mean % Indel” value of the first is higher: 6.5% for the first, 5.1% for the second.

Compared with `CCCCC/C=C\C/C=C\CCCCCCCC(=O)OCC(COC(=O)CCCC(=O)OC(CCCCCCCC)CCCCCCCC)COC(=O)OCCCN(CC)CC` (stereo not shown) [Compound 63, 3-(((3-(diethylamino)propoxy)carbonyl)oxy)-2-((((9Z,12Z)-octadeca-9,12-dienoyl)oxy)methyl)propyl heptadecan-9-yl glutarate], `CCCCC/C=C\C/C=C\CCCCCCCC(=O)OCC(COC(=O)CCCCCC(=O)OC(CCCCCCCC)CCCCCCCC)COC(=O)OCCCN(CC)CC` (stereo not shown) [Compound 64, 1-(3-(((3-(diethylamino)propoxy)carbonyl)oxy)-2-((((9Z,12Z)-octadeca-9,12-dienoyl)oxy)methyl)propyl) 7-(heptadecan-9-yl) heptanedioate] is higher in “Editing Mean % Indel” value: 15.0% for the first, 19.3% for the second.

Compared with `CCCCC/C=C\C/C=C\CCCCCCCC(=O)OCC(COC(=O)OCCCN(CC)CC)COC(=O)C(CCCCCC)CCCCCCCC` (stereo not shown) [Compound 65, 3-(((3-(diethylamino)propoxy)carbonyl)oxy)-2-(((2-hexyldecanoyl)oxy)methyl)propyl (9Z,12Z)-octadeca-9,12-dienoate], `CCCCC/C=C\C/C=C\CCCCCCCC(=O)OCC(COC(=O)CC(CCCCCCCC)CCCCCCCC)COC(=O)OCCCN(CC)CC` (stereo not shown) [Compound 66, 3-(((3-(diethylamino)propoxy)carbonyl)oxy)-2-(((3-octylundecanoyl)oxy)methyl)propyl (9Z,12Z)-octadeca-9,12-dienoate] is lower in “Editing Mean % Indel” value: 4.7% for the first, 0.8% for the second.

First: CCCCC/C=C\C/C=C\CCCCCCCC(=O)OCC(COC(=O)CCCC(CCCCCCC)CCCCCCC)COC(=O)OCCCN(CC)CC (stereo not shown) [Compound 67, 3-(((3-(diethylamino)propoxy)carbonyl)oxy)-2-(((5-heptyldodecanoyl)oxy)methyl)propyl (9Z,12Z)-octadeca-9,12-dienoate]
Second: CCCCC/C=C\C/C=C\CCCCCCCC(=O)OCC(COC(=O)CCCCCC(CCCCCC)CCCCCC)COC(=O)OCCCN(CC)CC (stereo not shown) [Compound 68, 3-(((3-(diethylamino)propoxy)carbonyl)oxy)-2-(((7-hexyltridecanoyl)oxy)methyl)propyl (9Z,12Z)-octadeca-9,12-dienoate]
The “Editing Mean % Indel” value of the first is higher: 3.1% for the first, 2.9% for the second.

Going from `CCCCCC/C=C\COC(=O)CCCCCCCCCC(=O)OCC(COC(=O)CCC(OCCCCCCCC)OCCCCCCCC)COC(=O)OCCCN(CC)CC` (stereo not shown) [Compound 69, (Z)-1-(3-((4,4-bis(octyloxy)butanoyl)oxy)-2-((((3-(diethylamino)propoxy)carbonyl)oxy)methyl)propyl) 11-(non-2-en-1-yl) undecanedioate] to `CCCCCC/C=C\COC(=O)CCCCCCCCCCCC(=O)OCC(COC(=O)CCC(OCCCCCCCC)OCCCCCCCC)COC(=O)OCCCN(CC)CC` (stereo not shown) [Compound 70, (Z)-1-(3-((4,4-bis(octyloxy)butanoyl)oxy)-2-((((3-(diethylamino)propoxy)carbonyl)oxy)methyl)propyl) 13-(non-2-en-1-yl) tridecanedioate], the “Editing Mean % Indel” value falls from 21.3% to 9.7%.
